Results are given in words; binding and its absence hold for the method and conditions named. Binding seen in cells or lysates may run through a third protein. Some binding calls cover weakened binding; strength is not graded here.
Tests used:
Assay in all cases: co-IP
[1] = molecular target: HA-tagged Nipah virus C protein (NiV-C-HA) (Nipah virus) (UniProt Q997F1)
[2] = molecular target: HA-EGFP-C-CTD (fusion of EGFP and NiV-C-CTD) (Nipah virus) (UniProt Q997F1)
[3] = molecular target: NiV-C 159tr with C-terminal HA tag (Nipah virus) (UniProt Q997F1)

Row | Substance | binding [1] | binding [2] | binding [3]
1 | FLAG-Tsg101 (from UniProt Q99816 1-390) | binds |  | 
2 | endogenous Tsg101 (from UniProt Q99816 1-390) | binds | binds | no binding
3 | FLAG-EGFP-Tsg101-CTD (from UniProt Q99816 303-390) (domain or fragment) | binds |  | 
